# Some of the results follow.
# B1: BC2L-D C-terminal domain (Burkholderia cenocepacia), Q39MQ9_BURS3 (protein)
# chain: LVIVDAVTLLSAYPEASRDPAAPTVIDGRHLYVVSPGDAAQLGHNDSRLFTGLSPGDQLHLRETALALRAEVSVLFIRFALKDAGIVAPIELEVRDAATAVPDADDLLHPSCRPLKDHYWRSDVLAAGATTCTADFAVCDRDGTVSGYFRWETSIEIAGSQPDTKQPGFKPSSDRNGNFSLPPNTAFKAIFYANAADRQDLKLFIDDAPEPAATFVGNSEDGVRLFTLNSKGGKIRIEASANGRQSATDARLAPLSAGDTVWLGWLGAEDGADADYNDGIVILQWPIT
# Tests used:
# Assay in all cases: glycan array binding signal (z-score within array); higher = stronger binding
# Details in all cases: glycan notation: IUPAC condensed, linker removed
# [1] = biological target: Fuc(a1-2)[GalNAc(a1-3)]Gal(b1-3)GlcNAc(b1-3)GalNAc
# How it was run: (§1)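 Negative Z-scores can be read as non-binding. The Z-score is calculated within each array and then averaged across arrays of one protein sequence at different concentrations or buffers and across linkers. Arrays, 3228 in all, were curated from the Consortium for Functional Glycomics database and kept only where the protein sequence was available.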
# [2] = biological target: Fuc(a1-2)[GalNAc(a1-3)]Gal(b1-4)Glc
# How it was run: as §1
# [3] = biological target: Fuc(a1-2)[GalNAc(a1-3)]Gal(b1-4)GlcNAc
# How it was run: as §1
# [4] = biological target: Fuc(a1-2)[GalNAc(a1-3)]Gal(b1-4)GlcNAc(b1-2)Man(a1-3)[Fuc(a1-2)[GalNAc(a1-3)]Gal(b1-4)GlcNAc(b1-2)Man(a1-6)]Man(b1-4)GlcNAc(b1-4)GlcNAc
# How it was run: as §1
# [5] = biological target: Fuc(a1-2)[GalNAc(a1-3)]Gal(b1-4)GlcNAc(b1-2)Man(a1-3)[Fuc(a1-2)[GalNAc(a1-3)]Gal(b1-4)GlcNAc(b1-2)Man(a1-6)]Man(b1-4)GlcNAc(b1-4)[Fuc(a1-6)]GlcNAc
# How it was run: as §1
# [6] = biological target: Fuc(a1-2)[GalNAc(a1-3)]Gal(b1-4)GlcNAc(b1-2)Man(a1-3)[GalNAc(a1-3)[Fuc(a1-2)]Gal(b1-4)GlcNAc(b1-2)Man(a1-6)]Man(b1-4)GlcNAc(b1-4)GlcNAc
# How it was run: as §1
# [7] = biological target: Fuc(a1-2)[GalNAc(a1-3)]Gal(b1-4)GlcNAc(b1-3)Gal(b1-4)GlcNAc
# How it was run: as §1
# [8] = biological target: Fuc(a1-2)[GalNAc(a1-3)]Gal(b1-4)GlcNAc(b1-3)Gal(b1-4)GlcNAc(b1-3)Gal(b1-4)GlcNAc
# How it was run: as §1
# [9] = biological target: Fuc(a1-2)[GalNAc(a1-3)]Gal(b1-4)GlcNAc(b1-3)GalNAc
# How it was run: as §1
# [10] = biological target: Fuc(a1-2)[GalNAc(a1-3)]Gal(b1-4)[Fuc(a1-3)]GlcNAc
# How it was run: as §1
# [11] = biological target: Fuc(a1-2)[GalNAc(a1-3)]Gal(b1-4)[Fuc(a1-3)]GlcNAc(b1-3)GalNAc
# How it was run: as §1
# [12] = biological target: Fuc(a1-2)[GalNAc(a1-4)]Gal(b1-4)GlcNAc
# How it was run: as §1
# [13] = biological target: Fuc(a1-2)[GalNAc(b1-3)]Gal
# How it was run: as §1
# [14] = biological target: Fuc(a1-3)GlcNAc
# How it was run: as §1
# [15] = biological target: Fuc(a1-3)[Gal(b1-4)]Glc6S
# How it was run: as §1
# [16] = biological target: Fuc(a1-3)[Gal(b1-4)]GlcNAc
# How it was run: as §1
# [17] = biological target: Fuc(a1-3)[Gal(b1-4)]GlcNAc(b1-2)Man(a1-3)[Fuc(a1-3)[Gal(b1-4)]GlcNAc(b1-2)Man(a1-6)]Man(b1-4)GlcNAc(b1-4)GlcNAc
# How it was run: as §1
# [18] = biological target: Fuc(a1-3)[Gal(b1-4)]GlcNAc(b1-2)Man(a1-3)[Fuc(a1-3)[Gal(b1-4)]GlcNAc(b1-2)Man(a1-6)]Man(b1-4)GlcNAc(b1-4)[Fuc(a1-6)]GlcNAc
# How it was run: as §1
# [19] = biological target: Fuc(a1-3)[Gal(b1-4)]GlcNAc(b1-2)Man(a1-6)[Gal(b1-4)GlcNAc(b1-2)Man(a1-3)]Man(b1-4)GlcNAc(b1-4)GlcNAc
# How it was run: as §1
# [20] = biological target: Fuc(a1-3)[Gal(b1-4)]GlcNAc(b1-3)Gal(b1-3)[Fuc(a1-4)]GlcNAc
# How it was run: as §1
# [21] = biological target: Fuc(a1-3)[Gal(b1-4)]GlcNAc(b1-3)GalNAc
# How it was run: as §1
# [22] = biological target: Fuc(a1-3)[Gal(b1-4)]GlcNAc(b1-4)Gal(b1-4)[Fuc(a1-3)]GlcNAc
# How it was run: as §1
# [23] = biological target: Fuc(a1-3)[Gal(b1-4)]GlcNAc(b1-4)Gal(b1-4)[Fuc(a1-3)]GlcNAc(b1-4)Gal(b1-4)[Fuc(a1-3)]GlcNAc
# How it was run: as §1
# [24] = biological target: Fuc(a1-3)[Gal(b1-4)]GlcNAc(b1-6)GalNAc
# How it was run: as §1
# [25] = biological target: Fuc(a1-3)[Gal(b1-4)]GlcNAc(b1-6)[Gal(b1-3)GlcNAc(b1-3)]Gal(b1-4)Glc
# How it was run: as §1
# [26] = biological target: Fuc(a1-3)[Gal(b1-4)]GlcNAc(b1-6)[Neu5Ac(a2-3)Gal(b1-3)]GalNAc
# How it was run: as §1
# [27] = biological target: Fuc(a1-3)[Gal(b1-4)]GlcNAc6S
# How it was run: as §1
# [28] = biological target: Fuc(a1-3)[Gal3S(b1-4)]Glc6S
# How it was run: as §1
# [29] = biological target: Fuc(a1-3)[Gal3S(b1-4)]GlcNAc
# How it was run: as §1
# [30] = biological target: Fuc(a1-3)[Gal3S(b1-4)]GlcNAc6S
# How it was run: as §1
# [31] = biological target: Fuc(a1-3)[GalNAc(b1-4)]GlcNAc
# How it was run: as §1
# [32] = biological target: Fuc(a1-3)[Neu5Ac(a2-3)]Gal(b1-4)GlcNAc(b1-3)GalNAc
# How it was run: as §1
# [33] = biological target: Fuc(a1-4)GlcNAc
# How it was run: as §1
# [34] = biological target: Fuc(b1-3)GlcNAc
# How it was run: as §1
# [35] = biological target: Gal(a1-2)Gal
# How it was run: as §1
# [36] = biological target: Gal(a1-3)Gal
# How it was run: as §1
# [37] = biological target: Gal(a1-3)Gal(b1-3)GlcNAc
# How it was run: as §1
# [38] = biological target: Gal(a1-3)Gal(b1-3)GlcNAc(b1-2)Man(a1-3)[Gal(a1-3)Gal(b1-3)GlcNAc(b1-2)Man(a1-6)]Man(b1-4)GlcNAc(b1-4)GlcNAc
# How it was run: as §1
# [39] = biological target: Gal(a1-3)Gal(b1-3)GlcNAc(b1-3)GalNAc
# How it was run: as §1
# [40] = biological target: Gal(a1-3)Gal(b1-3)[Fuc(a1-4)]GlcNAc(b1-2)Man(a1-3)[Gal(a1-3)Gal(b1-3)[Fuc(a1-4)]GlcNAc(b1-2)Man(a1-6)]Man(b1-4)GlcNAc(b1-4)GlcNAc
# How it was run: as §1
# [41] = biological target: Gal(a1-3)Gal(b1-4)Glc
# How it was run: as §1
# [42] = biological target: Gal(a1-3)Gal(b1-4)GlcNAc
# How it was run: as §1
# [43] = biological target: Gal(a1-3)Gal(b1-4)GlcNAc(b1-3)GalNAc
# How it was run: as §1
# [44] = biological target: Gal(a1-3)Gal(b1-4)[Fuc(a1-3)]GlcNAc
# How it was run: as §1
# [45] = biological target: Gal(a1-3)Gal(b1-4)[Fuc(a1-3)]GlcNAc(b1-2)Man(a1-3)[Gal(a1-3)Gal(b1-4)[Fuc(a1-3)]GlcNAc(b1-2)Man(a1-6)]Man(b1-4)GlcNAc(b1-4)GlcNAc
# How it was run: as §1
# [46] = biological target: Gal(a1-3)GalNAc
# How it was run: as §1
# [47] = biological target: Gal(a1-3)[Gal(a1-4)]Gal(b1-4)GlcNAc
# How it was run: as §1
# [48] = biological target: Gal(a1-4)Gal(b1-3)GlcNAc(b1-2)Man(a1-3)[Gal(a1-4)Gal(b1-3)GlcNAc(b1-2)Man(a1-6)]Man(b1-4)GlcNAc(b1-4)GlcNAc
# How it was run: as §1
# [49] = biological target: Gal(a1-4)Gal(b1-4)Glc
# How it was run: as §1
# [50] = biological target: Gal(a1-4)Gal(b1-4)GlcNAc
# How it was run: as §1
# [51] = biological target: Gal(a1-4)Gal(b1-4)GlcNAc(b1-2)Man(a1-3)[Gal(a1-4)Gal(b1-4)GlcNAc(b1-2)Man(a1-6)]Man(b1-4)GlcNAc(b1-4)GlcNAc
# How it was run: as §1
# [52] = biological target: Gal(a1-4)Gal(b1-4)GlcNAc(b1-3)Gal(b1-4)Glc
# How it was run: as §1
# [53] = biological target: Gal(a1-4)GlcNAc
# How it was run: as §1
# [54] = biological target: Gal(a1-6)Glc
# How it was run: as §1
# [55] = biological target: Gal(b1-2)Gal
# How it was run: as §1
# [56] = biological target: Gal(b1-3)Gal
# How it was run: as §1
# [57] = biological target: Gal(b1-3)Gal(b1-4)GlcNAc
# How it was run: as §1
# [58] = biological target: Gal(b1-3)Gal(b1-4)GlcNAc(b1-2)Man(a1-3)[Gal(b1-3)Gal(b1-4)GlcNAc(b1-2)Man(a1-6)]Man(b1-4)GlcNAc(b1-4)GlcNAc
# How it was run: as §1
# [59] = biological target: Gal(b1-3)GalNAc
# How it was run: as §1
# [60] = biological target: Gal(b1-3)GalNAc(a1-3)[Fuc(a1-2)]Gal(b1-4)Glc
# How it was run: as §1
binder,measurement,setting,value
B1,glycan array binding signal (z-score),[1],-0.163
same,glycan array binding signal (z-score),[2],-0.244
same,glycan array binding signal (z-score),[3],-0.244
same,glycan array binding signal (z-score),[4],-0.153
same,glycan array binding signal (z-score),[5],0.161
same,glycan array binding signal (z-score),[6],-0.237
same,glycan array binding signal (z-score),[7],-0.242
same,glycan array binding signal (z-score),[8],-0.232
same,glycan array binding signal (z-score),[9],-0.163
same,glycan array binding signal (z-score),[10],-0.209
same,glycan array binding signal (z-score),[11],-0.159
same,glycan array binding signal (z-score),[12],-0.166
same,glycan array binding signal (z-score),[13],-0.242
same,glycan array binding signal (z-score),[14],-0.007
same,glycan array binding signal (z-score),[15],-0.211
same,glycan array binding signal (z-score),[16],-0.214
same,glycan array binding signal (z-score),[17],-0.129
same,glycan array binding signal (z-score),[18],-0.161
same,glycan array binding signal (z-score),[19],-0.311
same,glycan array binding signal (z-score),[20],0.288
same,glycan array binding signal (z-score),[21],-0.164
same,glycan array binding signal (z-score),[22],0.049
same,glycan array binding signal (z-score),[23],0.024
same,glycan array binding signal (z-score),[24],-0.164
same,glycan array binding signal (z-score),[25],-0.165
same,glycan array binding signal (z-score),[26],-0.16
same,glycan array binding signal (z-score),[27],-0.222
same,glycan array binding signal (z-score),[28],-0.257
same,glycan array binding signal (z-score),[29],-0.258
same,glycan array binding signal (z-score),[30],-0.229
same,glycan array binding signal (z-score),[31],-0.217
same,glycan array binding signal (z-score),[32],-0.166
same,glycan array binding signal (z-score),[33],-0.122
same,glycan array binding signal (z-score),[34],-0.241
same,glycan array binding signal (z-score),[35],-0.241
same,glycan array binding signal (z-score),[36],-0.244
same,glycan array binding signal (z-score),[37],-0.242
same,glycan array binding signal (z-score),[38],-0.165
same,glycan array binding signal (z-score),[39],-0.163
same,glycan array binding signal (z-score),[40],-0.083
same,glycan array binding signal (z-score),[41],-0.204
same,glycan array binding signal (z-score),[42],-0.24
same,glycan array binding signal (z-score),[43],-0.164
same,glycan array binding signal (z-score),[44],-0.217
same,glycan array binding signal (z-score),[45],-0.19
same,glycan array binding signal (z-score),[46],-0.245
same,glycan array binding signal (z-score),[47],-0.247
same,glycan array binding signal (z-score),[48],-0.116
same,glycan array binding signal (z-score),[49],-0.245
same,glycan array binding signal (z-score),[50],-0.24
same,glycan array binding signal (z-score),[51],-0.16
same,glycan array binding signal (z-score),[52],-0.231
same,glycan array binding signal (z-score),[53],-0.243
same,glycan array binding signal (z-score),[54],-0.242
same,glycan array binding signal (z-score),[55],-0.247
same,glycan array binding signal (z-score),[56],-0.242
same,glycan array binding signal (z-score),[57],-0.241
same,glycan array binding signal (z-score),[58],-0.229
same,glycan array binding signal (z-score),[59],-0.238
same,glycan array binding signal (z-score),[60],-0.236

# — the supplement of paper PMC8728848
